Results taken from paper PMC12302537.
Results are given in words; binding and its absence hold for the method and conditions named. In cells and extracts the contact can be indirect. Some results given as binding are weak or reduced against the parent protein; the word gives no strength. One block for each molecule: values may come before it.

Protein sequences, listed by entry. Tags and fused reporters are not part of them.
UniProt P46938: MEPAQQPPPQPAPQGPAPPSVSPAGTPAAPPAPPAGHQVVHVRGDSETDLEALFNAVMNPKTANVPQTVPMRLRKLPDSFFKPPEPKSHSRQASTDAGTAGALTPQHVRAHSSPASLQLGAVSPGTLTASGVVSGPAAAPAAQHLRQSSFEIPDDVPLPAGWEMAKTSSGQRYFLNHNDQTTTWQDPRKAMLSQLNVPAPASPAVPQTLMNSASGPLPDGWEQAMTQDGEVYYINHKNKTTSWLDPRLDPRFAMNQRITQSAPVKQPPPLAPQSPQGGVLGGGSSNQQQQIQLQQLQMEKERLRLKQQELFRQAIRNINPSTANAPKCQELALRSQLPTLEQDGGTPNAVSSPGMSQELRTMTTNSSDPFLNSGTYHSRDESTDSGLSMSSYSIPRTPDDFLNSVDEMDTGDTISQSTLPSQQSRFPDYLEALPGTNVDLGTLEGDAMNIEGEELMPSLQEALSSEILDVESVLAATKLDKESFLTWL
UniProt P97313: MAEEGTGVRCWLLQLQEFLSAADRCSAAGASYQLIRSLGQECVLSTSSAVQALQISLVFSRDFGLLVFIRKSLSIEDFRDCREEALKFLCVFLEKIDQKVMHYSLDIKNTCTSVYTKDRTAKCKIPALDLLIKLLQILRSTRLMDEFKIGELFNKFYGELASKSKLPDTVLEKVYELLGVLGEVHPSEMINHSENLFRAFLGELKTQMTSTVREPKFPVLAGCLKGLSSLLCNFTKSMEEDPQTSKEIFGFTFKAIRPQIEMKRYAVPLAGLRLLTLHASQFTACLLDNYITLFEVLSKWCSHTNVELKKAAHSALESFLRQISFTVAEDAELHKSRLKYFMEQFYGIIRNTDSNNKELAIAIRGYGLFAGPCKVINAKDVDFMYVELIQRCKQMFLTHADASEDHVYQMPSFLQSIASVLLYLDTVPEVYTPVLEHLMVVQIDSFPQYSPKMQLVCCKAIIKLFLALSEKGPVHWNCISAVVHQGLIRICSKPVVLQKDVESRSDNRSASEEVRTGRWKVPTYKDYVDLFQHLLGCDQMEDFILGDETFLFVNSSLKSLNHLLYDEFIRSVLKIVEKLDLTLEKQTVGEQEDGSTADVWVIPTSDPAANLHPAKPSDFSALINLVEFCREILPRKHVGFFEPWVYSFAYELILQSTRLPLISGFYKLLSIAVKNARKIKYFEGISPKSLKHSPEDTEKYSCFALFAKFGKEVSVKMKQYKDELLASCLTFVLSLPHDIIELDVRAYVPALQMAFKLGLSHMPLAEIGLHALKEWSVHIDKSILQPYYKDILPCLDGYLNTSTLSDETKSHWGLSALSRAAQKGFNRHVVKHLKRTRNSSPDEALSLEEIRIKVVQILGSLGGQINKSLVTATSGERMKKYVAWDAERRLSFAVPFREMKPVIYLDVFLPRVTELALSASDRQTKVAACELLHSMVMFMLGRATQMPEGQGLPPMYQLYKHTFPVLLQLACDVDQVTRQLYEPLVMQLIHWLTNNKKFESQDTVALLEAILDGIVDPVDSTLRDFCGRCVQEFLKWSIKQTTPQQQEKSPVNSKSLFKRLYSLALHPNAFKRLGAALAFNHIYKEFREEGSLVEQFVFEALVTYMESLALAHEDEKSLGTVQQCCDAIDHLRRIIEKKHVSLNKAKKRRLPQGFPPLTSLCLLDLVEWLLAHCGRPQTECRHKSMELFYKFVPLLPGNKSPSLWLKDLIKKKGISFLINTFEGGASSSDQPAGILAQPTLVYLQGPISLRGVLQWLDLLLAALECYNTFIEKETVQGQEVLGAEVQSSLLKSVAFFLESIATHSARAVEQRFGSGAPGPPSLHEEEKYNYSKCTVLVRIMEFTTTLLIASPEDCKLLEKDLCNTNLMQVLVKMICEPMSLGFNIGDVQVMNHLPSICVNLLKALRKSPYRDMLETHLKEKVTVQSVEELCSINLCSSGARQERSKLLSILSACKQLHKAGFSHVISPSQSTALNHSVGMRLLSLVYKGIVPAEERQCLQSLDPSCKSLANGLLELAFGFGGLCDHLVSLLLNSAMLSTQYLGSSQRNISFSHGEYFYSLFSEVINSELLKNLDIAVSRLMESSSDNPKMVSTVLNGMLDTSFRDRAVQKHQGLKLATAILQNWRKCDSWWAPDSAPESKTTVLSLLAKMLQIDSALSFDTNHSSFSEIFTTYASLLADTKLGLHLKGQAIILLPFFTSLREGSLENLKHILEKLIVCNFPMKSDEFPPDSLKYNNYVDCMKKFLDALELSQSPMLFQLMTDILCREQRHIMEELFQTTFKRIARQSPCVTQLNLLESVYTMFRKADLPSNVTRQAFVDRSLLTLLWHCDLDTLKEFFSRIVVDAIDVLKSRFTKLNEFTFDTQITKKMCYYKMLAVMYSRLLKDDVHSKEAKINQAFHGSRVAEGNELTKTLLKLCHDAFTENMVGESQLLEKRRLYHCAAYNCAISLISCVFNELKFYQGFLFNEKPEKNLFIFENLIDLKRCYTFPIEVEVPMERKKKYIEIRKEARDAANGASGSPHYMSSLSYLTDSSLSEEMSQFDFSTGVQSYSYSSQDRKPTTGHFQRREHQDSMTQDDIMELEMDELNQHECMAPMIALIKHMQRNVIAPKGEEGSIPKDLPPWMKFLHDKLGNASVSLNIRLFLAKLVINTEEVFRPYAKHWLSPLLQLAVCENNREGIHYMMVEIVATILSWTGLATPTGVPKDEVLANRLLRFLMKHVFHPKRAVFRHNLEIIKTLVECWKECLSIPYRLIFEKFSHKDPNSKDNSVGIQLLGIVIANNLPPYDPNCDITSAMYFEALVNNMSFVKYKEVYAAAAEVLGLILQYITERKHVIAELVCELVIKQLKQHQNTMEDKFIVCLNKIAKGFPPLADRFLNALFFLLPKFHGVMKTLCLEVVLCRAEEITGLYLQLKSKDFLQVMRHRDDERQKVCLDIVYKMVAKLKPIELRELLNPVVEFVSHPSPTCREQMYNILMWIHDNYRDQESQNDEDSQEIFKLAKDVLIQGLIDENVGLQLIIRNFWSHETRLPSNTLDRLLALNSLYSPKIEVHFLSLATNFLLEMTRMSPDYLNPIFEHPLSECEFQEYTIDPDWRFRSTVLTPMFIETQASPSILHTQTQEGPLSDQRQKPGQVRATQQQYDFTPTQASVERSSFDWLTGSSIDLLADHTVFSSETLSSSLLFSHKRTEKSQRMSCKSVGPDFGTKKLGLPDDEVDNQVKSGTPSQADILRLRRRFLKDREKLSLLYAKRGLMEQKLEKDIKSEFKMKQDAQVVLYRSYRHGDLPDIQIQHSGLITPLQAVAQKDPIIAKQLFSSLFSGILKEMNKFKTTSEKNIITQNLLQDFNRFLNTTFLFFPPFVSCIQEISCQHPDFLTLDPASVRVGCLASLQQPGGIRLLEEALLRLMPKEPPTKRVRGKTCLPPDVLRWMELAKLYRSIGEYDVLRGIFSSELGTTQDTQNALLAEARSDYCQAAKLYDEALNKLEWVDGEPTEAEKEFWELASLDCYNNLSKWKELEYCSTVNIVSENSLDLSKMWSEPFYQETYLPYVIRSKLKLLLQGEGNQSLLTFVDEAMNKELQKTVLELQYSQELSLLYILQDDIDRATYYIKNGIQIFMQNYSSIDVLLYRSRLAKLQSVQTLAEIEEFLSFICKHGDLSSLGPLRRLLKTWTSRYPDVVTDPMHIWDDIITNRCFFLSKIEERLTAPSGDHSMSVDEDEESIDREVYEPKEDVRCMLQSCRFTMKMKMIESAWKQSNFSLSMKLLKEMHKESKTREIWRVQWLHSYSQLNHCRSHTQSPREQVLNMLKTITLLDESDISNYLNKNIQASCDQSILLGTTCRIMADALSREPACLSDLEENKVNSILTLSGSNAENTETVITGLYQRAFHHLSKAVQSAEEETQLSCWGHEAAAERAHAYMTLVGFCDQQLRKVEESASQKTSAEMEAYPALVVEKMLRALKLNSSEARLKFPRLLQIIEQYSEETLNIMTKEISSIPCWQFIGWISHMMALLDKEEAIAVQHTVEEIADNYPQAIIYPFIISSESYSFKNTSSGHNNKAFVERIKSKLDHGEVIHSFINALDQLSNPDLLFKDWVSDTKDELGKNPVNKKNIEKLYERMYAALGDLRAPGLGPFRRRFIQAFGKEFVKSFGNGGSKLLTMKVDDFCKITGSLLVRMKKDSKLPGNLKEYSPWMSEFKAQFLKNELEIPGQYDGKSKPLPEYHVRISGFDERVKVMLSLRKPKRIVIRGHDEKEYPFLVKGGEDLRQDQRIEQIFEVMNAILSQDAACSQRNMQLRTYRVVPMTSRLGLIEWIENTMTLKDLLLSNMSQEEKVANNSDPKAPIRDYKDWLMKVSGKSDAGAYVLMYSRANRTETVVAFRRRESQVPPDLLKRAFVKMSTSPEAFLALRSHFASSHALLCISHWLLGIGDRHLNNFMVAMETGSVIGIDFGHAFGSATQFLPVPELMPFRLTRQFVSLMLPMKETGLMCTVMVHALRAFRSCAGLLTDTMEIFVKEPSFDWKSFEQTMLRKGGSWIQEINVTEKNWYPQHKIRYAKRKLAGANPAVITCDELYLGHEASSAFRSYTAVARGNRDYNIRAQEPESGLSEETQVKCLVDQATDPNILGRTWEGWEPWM

Assays:
[1] = molecular target: T1, LATS2 (in HL‐1 cells) (mouse (in HL-1 cells)) (UniProt Q7TSJ6); experiment: co-IP; HL-1 cells transfected with His-tagged DNA-PKcs or HA-tagged YAP1 constructs (wild type or deletion mutants), high glucose exposure; immunoprecipitation and immunoblot
T1 sequence: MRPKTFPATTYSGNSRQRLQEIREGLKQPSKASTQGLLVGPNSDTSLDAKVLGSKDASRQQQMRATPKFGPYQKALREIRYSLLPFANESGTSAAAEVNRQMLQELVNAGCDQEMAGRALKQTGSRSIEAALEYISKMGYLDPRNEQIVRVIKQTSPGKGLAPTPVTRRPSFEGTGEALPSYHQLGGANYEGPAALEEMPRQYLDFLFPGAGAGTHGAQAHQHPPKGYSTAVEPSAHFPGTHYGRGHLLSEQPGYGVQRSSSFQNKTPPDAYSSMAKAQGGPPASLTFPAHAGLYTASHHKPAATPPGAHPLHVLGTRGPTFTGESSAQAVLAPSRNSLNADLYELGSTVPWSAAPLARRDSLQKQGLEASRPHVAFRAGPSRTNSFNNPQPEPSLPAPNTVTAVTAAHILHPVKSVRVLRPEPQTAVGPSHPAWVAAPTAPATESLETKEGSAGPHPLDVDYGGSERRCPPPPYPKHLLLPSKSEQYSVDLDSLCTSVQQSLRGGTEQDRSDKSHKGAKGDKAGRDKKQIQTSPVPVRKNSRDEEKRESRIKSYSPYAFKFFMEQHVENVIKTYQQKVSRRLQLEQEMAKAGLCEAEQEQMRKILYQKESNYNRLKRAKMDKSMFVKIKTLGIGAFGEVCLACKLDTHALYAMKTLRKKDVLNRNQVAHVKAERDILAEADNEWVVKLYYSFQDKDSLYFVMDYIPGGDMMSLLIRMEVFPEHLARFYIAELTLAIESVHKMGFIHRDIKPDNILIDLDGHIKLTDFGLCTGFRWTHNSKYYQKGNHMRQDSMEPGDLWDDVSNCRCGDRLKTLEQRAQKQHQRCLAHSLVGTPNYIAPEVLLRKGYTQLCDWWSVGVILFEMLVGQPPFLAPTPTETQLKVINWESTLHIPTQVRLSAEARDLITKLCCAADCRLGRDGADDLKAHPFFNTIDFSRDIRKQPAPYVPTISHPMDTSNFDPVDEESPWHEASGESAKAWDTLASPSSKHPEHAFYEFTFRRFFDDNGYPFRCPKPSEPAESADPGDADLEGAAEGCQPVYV

[2] = molecular target: HA‐tagged YAP1 (mouse (cDNA from HL-1 cells)) (UniProt P46938); experiment: as above
[3] = molecular target: T2, MST1 (in HL‐1 cells) (mouse (in HL-1 cells)) (UniProt Q9JI11); experiment: as above
T2 sequence: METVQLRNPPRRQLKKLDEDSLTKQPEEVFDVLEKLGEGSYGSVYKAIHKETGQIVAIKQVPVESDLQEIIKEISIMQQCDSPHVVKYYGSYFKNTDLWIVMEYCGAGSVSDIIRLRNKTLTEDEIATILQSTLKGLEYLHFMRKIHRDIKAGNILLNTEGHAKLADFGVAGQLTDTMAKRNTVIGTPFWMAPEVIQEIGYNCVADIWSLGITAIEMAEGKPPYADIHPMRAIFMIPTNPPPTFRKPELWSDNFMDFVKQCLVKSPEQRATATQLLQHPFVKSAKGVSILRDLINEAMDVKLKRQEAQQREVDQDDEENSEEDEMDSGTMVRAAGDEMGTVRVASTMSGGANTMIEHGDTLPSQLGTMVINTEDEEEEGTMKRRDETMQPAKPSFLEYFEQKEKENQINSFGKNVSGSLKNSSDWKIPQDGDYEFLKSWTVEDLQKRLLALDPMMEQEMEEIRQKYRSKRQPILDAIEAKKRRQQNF

[4] = molecular target: DNA‐Dependent Protein Kinase catalytic subunit (DNA‐PKcs) (mouse (endogenous in heart tissue)) (UniProt P97313); experiment: co-IP; immunoprecipitates of DNA-PKcs or YAP1 from heart tissues of mice with hyperglycemia-induced diabetic cardiomyopathy; Protein A/G magnetic beads, RIPA lysate, 4 °C overnight; immunoblot

binding [1]: no binding
binding [2]: binds
binding [3]: no binding
Molecule: His‐tagged DNA‐PKcs (from UniProt P97313 1-4128)

Molecule: Yes‐Associated Protein 1 (YAP1) (from UniProt P46938 1-488)
binding [4]: binds

B1: LATS2 (protein, UniProt Q7TSJ6 1-1042)
chain: T1 sequence
binding [4]: no binding

B2: MST1 (protein, UniProt Q9JI11 1-487)
chain: T2 sequence
binding [4]: no binding
